In the supplement of paper PMC3334620:
Over roughly 33,000 sequences, “E-score (-0.5 to 0.5)” has its median near -0.021; the highest 2% begin near 0.32. This is one part of the list.

Biological target: T1, Zap1 (UniProt P47043)
T1 sequence: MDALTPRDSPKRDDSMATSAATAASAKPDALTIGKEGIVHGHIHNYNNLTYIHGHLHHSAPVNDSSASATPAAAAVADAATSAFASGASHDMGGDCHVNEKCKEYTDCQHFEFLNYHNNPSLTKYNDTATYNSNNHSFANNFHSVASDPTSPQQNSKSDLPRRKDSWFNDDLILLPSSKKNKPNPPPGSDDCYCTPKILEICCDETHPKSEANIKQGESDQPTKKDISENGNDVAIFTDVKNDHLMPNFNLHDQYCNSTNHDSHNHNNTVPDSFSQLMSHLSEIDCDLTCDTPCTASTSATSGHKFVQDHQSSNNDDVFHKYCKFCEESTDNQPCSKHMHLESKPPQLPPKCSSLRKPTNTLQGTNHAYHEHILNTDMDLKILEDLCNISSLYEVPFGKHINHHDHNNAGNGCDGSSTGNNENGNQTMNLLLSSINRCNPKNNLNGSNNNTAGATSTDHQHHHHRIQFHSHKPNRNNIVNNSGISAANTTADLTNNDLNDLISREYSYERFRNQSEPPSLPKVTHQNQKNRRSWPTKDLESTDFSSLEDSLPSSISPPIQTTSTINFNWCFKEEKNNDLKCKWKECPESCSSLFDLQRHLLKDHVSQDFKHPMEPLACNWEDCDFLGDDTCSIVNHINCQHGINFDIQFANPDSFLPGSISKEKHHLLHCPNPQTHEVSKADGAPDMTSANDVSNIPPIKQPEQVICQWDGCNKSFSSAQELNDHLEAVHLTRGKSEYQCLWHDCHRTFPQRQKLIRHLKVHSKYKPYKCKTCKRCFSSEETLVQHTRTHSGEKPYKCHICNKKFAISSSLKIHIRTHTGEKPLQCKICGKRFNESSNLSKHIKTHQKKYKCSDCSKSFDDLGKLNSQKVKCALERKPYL
Experiment: PBM E-score (8-mer binding enrichment) (E-score (-0.5 to 0.5)); higher = stronger / more preferred TF binding; most listed sequences are background and not binding sites
Details: protein concentration: 200 nM; construct: GST-full length
Description: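 Universal 'all 10-mer' protein binding microarrays (Agilent AMADID 015681) probed with GST-tagged S. cerevisiae TFs (full-length or DBD) made by in vitro transcription/translation (PURExpress), about 100-200 nM. Bound TF was detected with fluorescent anti-GST. Each ungapped 8-mer (which stands for itself and its reverse complement) is scored by the PBM enrichment score (E-score), a modified Wilcoxon-Mann-Whitney statistic from -0.5 to +0.5, computed with the Universal PBM Analysis Suite. Scale: above 0.35 generally sequence-specific binding.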

In order of falling “PBM E-score” value:
1. AATGACCC  0.3
2. ATCTGTTA  0.211
3. ACAGGGTG  0.199
4. GTGGTATA  0.195
5. ACCATATG  0.174
6. ATCTCAAC  0.158
7. ACCATGTA  0.147
8. AACATAAT  0.142
9. ATCGTTTA  0.141
10. ATCACGGA  0.136
11. CAAAATGA  0.129
12. ACCACTGG  0.128
13. ATTTGGTG  0.124
14. CCCTATTA  0.101
15. CCGCATAG  0.0947
16. ACTCGCGA  0.0942
17. GTCAACTA  0.084
18. ACCATGAG  0.0798
19. ACAGCGGT  0.0759
20. ACTCGATA  0.0748
21. ACTGCAAT  0.0724
22. CGCCGTAA  0.0717
23. ATGAAGGG  0.0618
24. TAGCCCCA  0.06
25. ACACATGG  0.0436
26. CACCAATC  0.0403
27. CAGAAGAC  0.0367
28. TGAATAAA  0.0291
29. CTAAGGAA  0.0278
30. AGGGCTTG  0.0277
31. GACAGTAA  0.0265
32. AGGTCCAG  0.0253
33. AAGAAACT  0.0227
34. TATCATCA  0.0226
35. ACAACGAA  0.0201
36. CAATTTTC  0.0199
37. CTTTGCTA  0.0179
38. TCCCCTCA  0.016
39. ATATTGGG  0.0156
40. CGACCACA  0.0128
41. AGTTAACT  0.00939
42. CATTACTC  0.00053
43. CCTGAGTC  0.0002
44. CGATCCCA  -0.0142
45. GGCGTTAA  -0.0301
46. CTATCGTA  -0.034
47. AAACTCGA  -0.0479
48. GCTTAAAC  -0.0479
49. CATCGAAA  -0.0523
50. ATCACCGG  -0.0544
51. ACAGAGCC  -0.0572
52. ATTATGGC  -0.0578
53. AGCAGCAG  -0.0599
54. ATTCCGTA  -0.074
55. CGTTGGGA  -0.079
56. CGGGATAG  -0.0853
57. CCAAAGCG  -0.0968
58. GAGAACGC  -0.0996
59. CCCCTATA  -0.102
60. CTGGCAGA  -0.11
61. AATACGCG  -0.113
62. CAAGCTAC  -0.114
63. GCCAGACC  -0.118
64. AAGTCCCT  -0.12
65. ATGCGCCC  -0.121
66. AGAGCGCG  -0.122
67. CTACGGAG  -0.123
68. CTGCTCGA  -0.128
69. ACAATTCC  -0.163
70. CAGGCCAA  -0.168
71. CGCGTGCC  -0.172
72. CACGTTAG  -0.177
73. ATGTGCCC  -0.181
74. GTGAGGCA  -0.185
75. AATGTCGG  -0.192
76. CATGTCAA  -0.192
77. CCCCCTCC  -0.196
78. CCGTGTCG  -0.203
79. CTCGCCAA  -0.203
80. AGATCCTC  -0.204
81. CCCCCTGA  -0.209
82. GACGCGCC  -0.209
83. CGCCGAAG  -0.221
84. ACGAGTCT  -0.225
85. GCCCAGGC  -0.23
86. AGGAGCAG  -0.24
87. CTACGTCA  -0.247
88. GGAGAAGA  -0.247
89. AGCTGGAG  -0.258
90. GAATCAGC  -0.277
91. ACGAGCAA  -0.303
92. CCTTATCC  -0.307
93. GCGTTTAC  -0.311
94. AGGGGGCA  -0.366
